# Measurements as given in publication PMC6919601, “Identification of Plasmodium dipeptidyl aminopeptidase allosteric inhibitors by high throughput screening” (PLoS ONE, 2019).
# Out of some 110,000 compounds screened, about 230 (0.21%) showed an effect of 50% or more. The list shows a part of the results.
# Molecular target: DPAP1 (Plasmodium falciparum, UniProt Q8IIJ9)
# Assay: primary screen, percent inhibition; read by cleavage of a fluorogenic dipeptide substrate; higher = more effect of the substance
# Set-up: species or system P. falciparum D10 trophozoite lysates; single well
# 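Also: 30 min substrate incubation versus DMSO and 10 µM JCP410 controls.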
# Chain of DPAP1 (Q8IIJ9 whole entry, looked up): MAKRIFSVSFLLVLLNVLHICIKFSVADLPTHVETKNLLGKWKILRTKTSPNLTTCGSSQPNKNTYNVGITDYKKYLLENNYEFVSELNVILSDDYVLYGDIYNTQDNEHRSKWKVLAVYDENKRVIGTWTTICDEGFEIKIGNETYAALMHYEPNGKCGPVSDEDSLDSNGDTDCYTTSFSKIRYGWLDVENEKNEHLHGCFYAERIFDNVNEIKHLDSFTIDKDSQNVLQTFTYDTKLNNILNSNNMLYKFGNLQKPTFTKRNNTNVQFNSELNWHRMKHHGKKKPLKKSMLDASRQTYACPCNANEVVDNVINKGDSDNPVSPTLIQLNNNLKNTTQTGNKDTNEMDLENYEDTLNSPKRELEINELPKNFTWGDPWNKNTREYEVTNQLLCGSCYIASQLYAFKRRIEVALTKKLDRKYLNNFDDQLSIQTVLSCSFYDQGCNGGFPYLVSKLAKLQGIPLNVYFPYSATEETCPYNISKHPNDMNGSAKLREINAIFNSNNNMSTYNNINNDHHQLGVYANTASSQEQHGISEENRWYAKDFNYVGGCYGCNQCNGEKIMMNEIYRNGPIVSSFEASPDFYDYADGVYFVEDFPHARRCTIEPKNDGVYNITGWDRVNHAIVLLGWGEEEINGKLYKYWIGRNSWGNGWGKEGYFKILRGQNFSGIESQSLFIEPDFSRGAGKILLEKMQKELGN
row,Structure (SMILES),% Inhibition @ 10 uM [%]
1,COc1ccc(S(=O)(=O)N2CCSC2c2ccccc2Cl)cc1 (stereo not shown),68.6
2,CCOCCCNC(=O)CCc1cn(Cc2ccc(F)cc2)c2ccccc12,0.0244
3,Cc1ccc(CCNC(=O)c2csc3c2CCCCC3)cc1,3.54
4,O=C1C2CCCCN2C(=O)N1CCCCN1CCN(c2cccc(C(F)(F)F)c2)CC1 (stereo not shown),-0.318
5,Cc1ccc(NC(C)(C)c2nnnn2C(/C=C\c2ccc(Cl)cc2Cl)C(C)(C)C)cc1 (stereo not shown),7.14
6,COCCn1c(COc2ccc(Cl)cc2)nc2ccccc21,-1.66
7,C=CCOc1c(Cl)cc(CNC(C)(C)C)cc1OC,2.01
8,O=C(NCc1ccc2c(c1)OCO2)c1ccc2c(c1)ncn2C1CCCC1,2.05
9,COc1cc(C2CC(=O)N3C(=C2C#N)SCC3(O)c2ccc(Cl)cc2)ccc1O (stereo not shown),-0.0235
10,CCOC(=O)CCNc1nnc(S)nc1O,-1.29
11,Cc1ccc(-c2nc3ncccc3o2)cc1NC(=O)C(C)C,2.08
12,N#CC1=C(Nc2ccc(Cl)cc2)CCC1,1.7
13,OCCN1CCN(C2Cc3ccc(Cl)cc3Sc3ccc(F)cc32)CC1 (stereo not shown),-2.29
14,O=C(c1ccccc1)c1ccc(C(=O)O)c(C(=O)O)c1,-9.55
15,C=CCOc1ccc(CNC(C)(C)C)cc1OC,1.84
16,CCC(C)NC(=O)CSc1nc2nc(C)c(Cc3cccc(C)c3)c(C)n2n1 (stereo not shown),-3.89
17,COc1ccc(C(=O)Nc2nc(C)c(C(=O)N(C)C)s2)cc1OC,0.431
18,COc1cc2c(C)nc(O)c(CC(=O)Nc3ccccc3)c2cc1OC,18
19,O=C1NCCCC[C@@H]1Nc1ccc(C(F)(F)F)cn1,-4.8
20,Nc1nc(Cn2nnc(-c3ccccc3F)n2)nc(N2CCOCC2)n1,-1.46
21,N#CCNC(=O)[C@@H](Cc1ccncc1)NC(=O)OCc1ccccc1,-1.5
22,COc1cccc(/C=C(\C#N)c2nc3ccccc3[nH]2)c1OC,1.08

row,Structure (SMILES),% Inhibition @ 10 uM [%]
1,COc1ccccc1OCCSc1nc(-c2ccccc2F)nc2cc(=O)[nH]n12,-0.12
2,COCCn1c(=N)c(C(=O)NCc2cccnc2)cc2c(=O)n3cc(C)ccc3nc21,3.6
3,COc1ccc(/C=C(\NC(=O)c2ccco2)C(N)=O)cc1,-1.36
4,COc1ccc(C(=O)N(Cc2ccccc2F)C2CCS(=O)(=O)C2)cc1Cl (stereo not shown),6.67
5,C/C(=C1/C(=O)N(c2nc3ccccc3s2)N=C1CSc1ccc(Cl)cc1)N1CCOCC1,1.26
6,Cc1cc(C)n2nc3nc(N4CCOCC4)nc(-c4ccc(C(C)C)cc4)c3c2n1,2.64
7,CS(=O)(=O)N(CC(=O)NCCSc1ccccc1)c1cccc(Cl)c1,-8.78
8,COCCNC(=S)NCCc1c(C)[nH]c2ccc(OC)cc12,4.41
9,CCc1c(C)sc(NC(=O)Cc2ccc(OC)c(OC)c2)c1C(N)=O,16.2
10,COC(=O)C1=C(C)N(CCc2ccccc2)C(=O)C1(NC(=O)c1ccccc1)C(F)(F)F (stereo not shown),-1.52
11,Cc1c(C(=O)NCCN(C)Cc2ccccc2)sc2nc3n(c(=O)c12)CCCCC3,-8.31
12,CCOc1ccc(NC(=O)COc2cc(C)ccc2C(C)C)cc1,-3.34
13,CCOc1ccc(C(=O)Nc2ccc(C)cn2)cc1,-0.95
14,CCOc1ccccc1C1CC(=O)NC(SCc2ccccc2)=C1C#N (stereo not shown),-1.64
15,COC(=O)c1c(N)sc2c1CCC2,4.57
16,N=C1S/C(=C\c2c[nH]nc2-c2ccc(F)cc2)C(=O)N1c1nonc1N,5.12
17,Cc1nc2c(=O)[nH]c(=O)n(C)c2nc1C,3.54
18,CCOC(=O)c1cc(-c2ccccc2)n(-c2ccccc2OC)n1,-3.14
19,COc1cccc(S(=O)(=O)Nc2noc3ccccc23)c1,-6.5
20,O=C(Nc1ccc2ccccc2c1)c1ccncc1,-5.35
21,CC(=O)N1CCC2(CC1)OC(=O)C(C)=C2C(=O)NCc1cccc(F)c1,-1.04
22,Cc1cccc2cc(-c3nc4ccccc4[nH]3)c(=O)oc12,2.31

row,Structure (SMILES),% Inhibition @ 10 uM [%]
1,CCOC(=O)N1CCN(S(C)(=O)=O)CC1,2.92
2,Cc1c(C)n(Cc2ccc(F)cc2)c2ccc(C(=O)NCCN(C)C)cc12,-8.85
3,O=C(NCc1ccc(F)cc1)C1c2ccccc2C(=O)N(C2CCCC2)C1c1cccs1 (stereo not shown),0.554
4,Cc1ccc(C(=O)Cn2c3ccccc3n3nc(-c4ccccc4)nc23)cc1,-7.38
5,N#Cc1c(N)n(-c2ccccc2N)c2nc3ccccc3nc12,0.708
6,O=C(NOC(=O)c1ccc(Br)cc1)c1ccc(Cl)cc1,-9.79
7,Cc1ccc(-c2nc(CS(=O)(=O)CC(=O)NCCN(CC(C)C)CC(C)C)c(C)o2)cc1,-0.138
8,CN(C)CCCN1CC(C(=O)O)CC1=O (stereo not shown),-1.72
9,CCOC(=O)c1sc(NC(=O)c2cc(=O)c3cc(C)cc(C)c3o2)c(C(=O)OCC)c1C,5.06
10,CC1(C)O[C@H]2[C@@H](O1)[C@@H](C(=O)NCC(=O)O)O[C@@H]1OC(C)(C)O[C@@H]12,1.64
11,CCCOc1cccc(C(=O)N(Cc2ccc(Cl)cc2)C2CCS(=O)(=O)C2)c1 (stereo not shown),-6.78
12,CCN(CC)c1ccc(C2NC(=O)NC(C)=C2C(=O)Nc2ccccc2)cc1 (stereo not shown),-0.949
13,c1cc(C23CC4CC(CC(C4)C2)C3)ccc1OCCN1CCCCC1,3.58
14,Cc1[nH]c2ccc3ncccc3c2c1C,0.658
15,CC1CCN(S(=O)(=O)c2ccc3c(ccn3CC(=O)NC3CCCc4ccccc43)c2)CC1 (stereo not shown),9.05
16,COc1ccc2c(c1)C1CC(C)(NC(=O)C1S(=O)(=O)c1ccc(C)c(C)c1)O2 (stereo not shown),-0.72
17,CC(C)(C)OC(=O)NC1CCN(S(=O)(=O)c2ccc(OC(F)(F)F)cc2)CC1,-3.24
18,O=C(Cn1cnc2onc(-c3ccc(F)cc3)c2c1=O)N1CCN(Cc2ccc3c(c2)OCO3)CC1,5.2
19,O=C1c2ccncc2C(=O)N1CCc1ccccc1,5.39
20,CCC1CCCCN1C(=O)CSc1c2c(nc3ccccc13)CCC2 (stereo not shown),-6.89
